Measurements: paper PMC9911399, “Two distinct binding modes provide the RNA-binding protein RbFox with extraordinary sequence specificity”
Positions count from the first letter of the chain named. This is one part of the list.

T1: RBFOX1 RRM RbFoxmut (Fox-RRM*) (Homo sapiens, UniProt Q9NWB1 109-208, R118D;E147R;N151S;E152T)
T1 sequence: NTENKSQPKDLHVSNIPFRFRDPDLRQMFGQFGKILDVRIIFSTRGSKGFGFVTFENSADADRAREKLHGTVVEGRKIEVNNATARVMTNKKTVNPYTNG

B1: AUCCAUU (DNA:RNA)
RNA: GGGAGACCGGAAUUCAGAUUGUCCAUCCAUUUUAAAUCCCGUCGUAGCCACCA
DNA 1: CAATCTGAATTCCGGTCTCCC
DNA 2: TGGTGGCTACGACGGGATT
B2: ACCCAUA (DNA:RNA)
RNA: B1 RNA with U26C, U31A
DNA 1: CAATCTGAATTCCGGTCTCCC
DNA 2: TGGTGGCTACGACGGGATT
B3: CAUUACA (DNA:RNA)
RNA: B1 RNA with A25C, U26A, C27U, C28U, U30C, U31A
DNA 1: CAATCTGAATTCCGGTCTCCC
DNA 2: TGGTGGCTACGACGGGATT
B4: CAAUCGG (DNA:RNA)
RNA: GGGAGACCGGAAUUCAGAUUGUCCCAAUCGGUUAAAUCCCGUCGUAGCCACCA
DNA 1: CAATCTGAATTCCGGTCTCCC
DNA 2: TGGTGGCTACGACGGGATT
B5: CUGCUGG (DNA:RNA)
RNA: B4 RNA with A26U, A27G, U28C, C29U
DNA 1: CAATCTGAATTCCGGTCTCCC
DNA 2: TGGTGGCTACGACGGGATT
B6: UUUCUUG (DNA:RNA)
RNA: B1 RNA with A25U, C27U, A29U, U31G
DNA 1: CAATCTGAATTCCGGTCTCCC
DNA 2: TGGTGGCTACGACGGGATT
B7: GGGCACG (DNA:RNA)
RNA: B1 RNA with A25G, U26G, C27G, U30C, U31G
DNA 1: CAATCTGAATTCCGGTCTCCC
DNA 2: TGGTGGCTACGACGGGATT
B8: CAAAGCG (DNA:RNA)
RNA: B4 RNA with U28A, C29G, G30C
DNA 1: CAATCTGAATTCCGGTCTCCC
DNA 2: TGGTGGCTACGACGGGATT
B9: GGACAGU (DNA:RNA)
RNA: B1 RNA with A25G, U26G, C27A, U30G
DNA 1: CAATCTGAATTCCGGTCTCCC
DNA 2: TGGTGGCTACGACGGGATT
B10: GAUACGA (DNA:RNA)
RNA: B4 RNA with C25G, A27U, U28A, G31A
DNA 1: CAATCTGAATTCCGGTCTCCC
DNA 2: TGGTGGCTACGACGGGATT
B11: CGAGUAG (DNA:RNA)
RNA: B4 RNA with A26G, U28G, C29U, G30A
DNA 1: CAATCTGAATTCCGGTCTCCC
DNA 2: TGGTGGCTACGACGGGATT
B12: AUAGACU (DNA:RNA)
RNA: B1 RNA with C27A, C28G, U30C
DNA 1: CAATCTGAATTCCGGTCTCCC
DNA 2: TGGTGGCTACGACGGGATT
B13: AUUCACA (DNA:RNA)
RNA: B1 RNA with C27U, U30C, U31A
DNA 1: CAATCTGAATTCCGGTCTCCC
DNA 2: TGGTGGCTACGACGGGATT
B14: CGUCUUC (DNA:RNA)
RNA: B1 RNA with A25C, U26G, C27U, A29U, U31C
DNA 1: CAATCTGAATTCCGGTCTCCC
DNA 2: TGGTGGCTACGACGGGATT
B15: CUACGCA (DNA:RNA)
RNA: B1 RNA with A25C, C27A, A29G, U30C, U31A
DNA 1: CAATCTGAATTCCGGTCTCCC
DNA 2: TGGTGGCTACGACGGGATT
B16: GGUGAAC (DNA:RNA)
RNA: B1 RNA with A25G, U26G, C27U, C28G, U30A, U31C
DNA 1: CAATCTGAATTCCGGTCTCCC
DNA 2: TGGTGGCTACGACGGGATT
B17: GUUCGGG (DNA:RNA)
RNA: B1 RNA with A25G, C27U, A29G, U30G, U31G
DNA 1: CAATCTGAATTCCGGTCTCCC
DNA 2: TGGTGGCTACGACGGGATT
B18: UAAACUU (DNA:RNA)
RNA: B4 RNA with C25U, U28A, G30U, G31U
DNA 1: CAATCTGAATTCCGGTCTCCC
DNA 2: TGGTGGCTACGACGGGATT
B19: UCAUUUC (DNA:RNA)
RNA: B4 RNA with C25U, A26C, C29U, G30U, G31C
DNA 1: CAATCTGAATTCCGGTCTCCC
DNA 2: TGGTGGCTACGACGGGATT
B20: CACACUU (DNA:RNA)
RNA: B1 RNA with A25C, U26A, C28A, A29C
DNA 1: CAATCTGAATTCCGGTCTCCC
DNA 2: TGGTGGCTACGACGGGATT

What follows are binders tested against T1, RBFOX1 RRM RbFoxmut (Fox-RRM*) (assay: EMSA; HiTS-Eq, 1 nM pool, 10 min; buffer printed only for the single-RNA assays: 10 mM Tris pH 7.5, 150 mM NaCl, 3.4 mM EDTA, 0.001% NP-40, 30 C). Details: tags: His6 N-terminal (pET28a); label: 5' 32P.
Method in brief: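 Purified RbFox RRM (wild type or mutant) was equilibrated for 10 min in 50 µL with 1 nM of a 5′-radiolabelled pool of RNA with 7 randomized nucleotides, its flanks annealed to DNA oligonucleotides, across increasing protein concentrations. Free RNA was separated by 8% native PAGE, excised, reverse-transcribed, PCR-barcoded and sequenced on an Illumina HiSeq 2500. Relative association constants came from read-count changes of each variant against the control reaction, normalised to the cognate motif.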

Binder	binding signal
B1	0.0835 KA relative to UGCAUGU
B2	0.0832 KA relative to UGCAUGU
B3	0.158 KA relative to UGCAUGU
B4	0.0571 KA relative to UGCAUGU
B5	0.114 KA relative to UGCAUGU
B6	0.0889 KA relative to UGCAUGU
B7	0.249 KA relative to UGCAUGU
B8	0.0929 KA relative to UGCAUGU
B9	0.0929 KA relative to UGCAUGU
B10	0.0786 KA relative to UGCAUGU
B11	0.154 KA relative to UGCAUGU
B12	0.0784 KA relative to UGCAUGU
B13	0.117 KA relative to UGCAUGU
B14	0.173 KA relative to UGCAUGU
B15	0.149 KA relative to UGCAUGU
B16	0.0899 KA relative to UGCAUGU
B17	0.0874 KA relative to UGCAUGU
B18	0.0599 KA relative to UGCAUGU
B19	0.0773 KA relative to UGCAUGU
B20	0.0845 KA relative to UGCAUGU
